# Experimental data reported in US9890133B2 (priority 2011, dated 2018).
# Legend:
# [1] = tested on: Coxsackie B4; assay: CPE inhibition assay, Coxsackie B4; assay type: cell-based; conditions: Enterovirus B, B4, HeLa37, 48 h; HeLa, 37° C., 2 days, MTT
# [2] = tested on: Coxsackie B1; assay: organism not typed; conditions: read-out: Coxsackie B1 EC50
# [3] = tested on: Rhinovirus; assay: microbe, parasite or virus in culture; assay type: cell-based; conditions: Enterovirus
# [4] = tested on: Coxsackie B3; assay: microbe, parasite or virus in culture; conditions: Enterovirus B, B3, read-out: Coxsackie B3 EC50
# [5] = HRV14, read-out: Rhino HRV14 EC50
# [6] = HRV21, read-out: Rhino HRV21 EC50
# [7] = HRV71, read-out: Rhino HRV71 EC50
Compound,EC50 [1] [µg/mL],"EC50 ([2]; HeLa37, 48 h) [µg/mL]",EC50 [2] [µg/mL],"EC50 [3, 5] [µg/mL]",EC50 [4] [µg/mL],"EC50 [3, 6] [µg/mL]","EC50 [3, 7] [µg/mL]"
"CC(C)c1ccc2c(c1)O[C@@]1(O)c3cccc(O)c3C(=O)[C@@]21O [Example 43, 1,4b,9b-Trihydroxy-7-isopropyl-4bH-benzo[d]indeno[1,2-b]furan-10(9bH)-one]",< 0.01,< 0.01,< 0.01,,,,
"Cc1cc(C)n2ncc(C(=O)NC34C(=O)c5c(N)cccc5C3(O)Oc3cc(C(C)C)ccc34)c2n1 (stereo not shown) [Example 282, N-(1-Amino-4b-hydroxy-7-isopropyl-10-oxo-9b,10-dihydro-4bH-indeno[1,2-b]benzofuran-9b-yl)-5,7-dimethylpyrazolo[1,5-a]pyrimidine-3-carboxamide]",,,< 0.01,0.011,0.011,,
"CC(C)c1ccc2c(c1)OC1(O)c3cccc(N)c3C(=O)C21NC(=O)c1cc(C(C)C)nc2c1cnn2C(C)C (stereo not shown) [Example 284, N-(1-Amino-4b-hydroxy-7-isopropyl-10-oxo-9b,10-dihydro-4bH-indeno[1,2-b]benzofuran-9b-yl)-1,6-diisopropyl-1H-pyrazolo[3,4-b]pyridine-4-carboxamide]",,,< 0.01,0.028,0.016,,
"CC(C)c1ccc2c(c1)OC1(O)c3cccc(N)c3C(=O)C21NC(=O)c1cn2cccnc2n1 (stereo not shown) [Example 285, N-(1-Amino-4b-hydroxy-7-isopropyl-10-oxo-9b,10-dihydro-4bH-indeno[1,2-b]benzofuran-9b-yl)imidazo[1,2-a]pyrimidine-2-carboxamide]",,,< 0.01,< 0.01,< 0.01,< 1,
"CC(C)c1ccc2c(c1)OC1(O)c3cccc(N)c3C(=O)C21NC(=O)c1cc2ccccc2c(=O)[nH]1 (stereo not shown) [Example 286, N-(1-Amino-4b-hydroxy-7-isopropyl-10-oxo-9b,10-dihydro-4bH-indeno[1,2-b]benzofuran-9b-yl)-1-oxo-1,2-dihydroisoquinoline-3-carboxamide]",,,< 0.01,< 0.01,< 0.01,< 1,< 1
"Cc1nc(C(=O)NC23C(=O)c4c(N)cccc4C2(O)Oc2cc(C(C)C)ccc23)c2ccccn12 (stereo not shown) [Example 287, N-(1-Amino-4b-hydroxy-7-isopropyl-10-oxo-9b,10-dihydro-4bH-benzo[d]indeno[1,2-b]furan-9b-yl)-3-methylimidazo[1,5-a]pyridine-1-carboxamide]",,,< 0.01,< 0.01,< 0.01,,
"CC(C)c1ccc2c(c1)OC1(O)c3cccc(N)c3C(=O)C21NC(=O)c1[nH]nc2ccccc12 (stereo not shown) [Example 288, N-(1-Amino-4b-hydroxy-7-isopropyl-10-oxo-9b,10-dihydro-4bH-benzo[d]indeno[1,2-b]furan-9b-yl)-2H-indazole-3-carboxamide]",,,< 0.01,< 0.01,< 0.01,,< 1
"Cc1c(C(=O)NC23C(=O)c4c(N)cccc4C2(O)Oc2cc(C(C)C)ccc23)cnc2ccnn12 (stereo not shown) [Example 289, N-(1-Amino-4b-hydroxy-7-isopropyl-10-oxo-9b,10-dihydro-4bH-indeno[1,2-b]benzofuran-9b-yl)-7-methylpyrazolo[1,5-a]pyrimidine-6-carboxamide]",,,< 0.01,< 0.01,< 0.01,< 1,< 1
"CC(C)c1ccc2c(c1)OC1(O)c3cccc(N)c3C(=O)C21NC(=O)c1nc2ccccc2[nH]1 (stereo not shown) [Example 290, N-(1-Amino-4b-hydroxy-7-isopropyl-10-oxo-9b,10-dihydro-4bH-indeno[1,2-b]benzofuran-9b-yl)-1H-benzo[d]imidazole-2-carboxamide]",,,< 0.01,< 0.01,< 0.01,< 1,< 1
"CC(C)c1ccc2c(c1)OC1(O)c3cccc(N)c3C(=O)C21NC(=O)c1nc2cc(F)ccc2[nH]1 (stereo not shown) [Example 291, N-(1-Amino-4b-hydroxy-7-isopropyl-10-oxo-9b,10-dihydro-4bH-indeno[1,2-b]benzofuran-9b-yl)-5-fluoro-1H-benzo[d]imidazole-2-carboxamide]",,,< 0.01,< 0.01,< 0.01,< 1,< 1

# Where two headings read alike, the source gives them in different places.
